From the supplement of paper PMC7826260
This is one part of the list. One pool of 16,384 single-stranded DNAs met each Rep nickase domain in vitro (1 h at 37 °C, 3 µM enzyme); the outer parts of the 90-letter strands are left off. Values are log2 of uncut reads against the no-enzyme pool; more negative means more cut, near 0 not cut, and no call is made. Because reads are shares of a total, they shift together, so uncut sequences can rise above 0 when many others are cut.

Experiments:
Assay in all cases: uncleaved DNA left, log2 of reads against the no-enzyme library (log2 ratio); higher = less cleavage (more negative = more Rep cleavage of the k-mer); sequences stand for … in CTCGTCCG…ACCGGAGA
[1] = tested on: T1, Rep nickase domain of Muscovy duck circovirus
T1 sequence (Rep 1-111, printed without the tag): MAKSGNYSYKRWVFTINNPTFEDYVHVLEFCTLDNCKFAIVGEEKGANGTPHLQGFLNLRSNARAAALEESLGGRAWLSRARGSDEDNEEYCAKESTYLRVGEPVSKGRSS
Description: (§1)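 A pool of 90-nt single-stranded DNAs with seven random bases just before the constant AC of the nick site (name = the seven bases) was cut by 3 µM recombinant His6-SUMO-tagged Rep nickase domain (300 nM DNA, 50 mM HEPES pH 8.0, 50 mM NaCl, 1 mM MnCl2, 1 h, 37 °C, three replicates). Uncut DNA was amplified and sequenced.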

[2] = tested on: T2, Rep nickase domain of banana bunchy top virus
T2 sequence (Rep 1-94, printed without the tag): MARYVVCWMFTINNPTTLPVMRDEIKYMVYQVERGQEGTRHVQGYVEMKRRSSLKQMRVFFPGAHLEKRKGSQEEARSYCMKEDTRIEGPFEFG
Description: as §1

[3] = tested on: T3, Rep nickase domain of cabbage leaf curl virus
T3 sequence (Rep 1-116, printed without the tag): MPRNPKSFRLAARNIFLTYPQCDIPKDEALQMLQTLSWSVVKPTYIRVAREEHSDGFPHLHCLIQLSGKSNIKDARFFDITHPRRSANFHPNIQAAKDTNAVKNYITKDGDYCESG
Description: as §1

[4] = tested on: T4, Rep nickase domain of chickpea chlorotic dwarf virus
T4 sequence (Rep 1-124, printed without the tag): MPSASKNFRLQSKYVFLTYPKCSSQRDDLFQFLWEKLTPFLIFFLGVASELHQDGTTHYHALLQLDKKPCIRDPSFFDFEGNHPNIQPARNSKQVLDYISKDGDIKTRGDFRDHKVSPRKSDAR
Description: as §1

[5] = tested on: T5, Rep nickase domain of faba bean necrotic yellows virus
T5 sequence (Rep 1-98, printed without the tag): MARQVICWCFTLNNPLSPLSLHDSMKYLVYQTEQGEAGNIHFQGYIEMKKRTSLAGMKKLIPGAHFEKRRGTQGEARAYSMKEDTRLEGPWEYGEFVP
Description: as §1

[6] = tested on: T6, Rep nickase domain of maize striate mosaic virus
T6 sequence (Rep 1-117, printed without the tag): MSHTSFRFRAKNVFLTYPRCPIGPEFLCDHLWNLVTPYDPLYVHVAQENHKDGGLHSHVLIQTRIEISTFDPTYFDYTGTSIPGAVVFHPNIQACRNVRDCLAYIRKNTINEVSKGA
Description: as §1

[7] = tested on: T7, Rep nickase domain of porcine circovirus 2
T7 sequence (Rep 2-116, printed without the tag): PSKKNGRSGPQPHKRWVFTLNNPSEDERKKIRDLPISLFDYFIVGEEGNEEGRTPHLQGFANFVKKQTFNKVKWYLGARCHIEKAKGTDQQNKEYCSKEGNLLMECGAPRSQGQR
Description: as §1

[8] = tested on: T8, Rep nickase domain of tomato golden mosaic virus
T8 sequence (Rep 1-124, printed without the tag): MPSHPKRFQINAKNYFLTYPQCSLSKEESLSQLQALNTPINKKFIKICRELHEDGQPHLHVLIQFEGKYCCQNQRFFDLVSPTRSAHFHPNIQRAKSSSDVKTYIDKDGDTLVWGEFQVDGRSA
Description: as §1

[9] = tested on: T9, Rep nickase domain of tomato yellow leaf curl virus
T9 sequence (Rep 1-136, printed without the tag): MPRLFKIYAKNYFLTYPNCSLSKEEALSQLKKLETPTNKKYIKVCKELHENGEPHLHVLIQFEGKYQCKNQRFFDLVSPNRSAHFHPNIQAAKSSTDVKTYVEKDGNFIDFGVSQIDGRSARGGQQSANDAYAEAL
Description: as §1

[10] = tested on: T10, Rep nickase domain of wheat dwarf virus
T10 sequence (Rep 1-137, printed without the tag): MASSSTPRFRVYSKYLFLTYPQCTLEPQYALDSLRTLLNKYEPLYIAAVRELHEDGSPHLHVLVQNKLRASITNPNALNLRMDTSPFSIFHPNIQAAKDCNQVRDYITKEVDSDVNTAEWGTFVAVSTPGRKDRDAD
Description: as §1

Sequence | uncleaved DNA left (log2) [1] | uncleaved DNA left (log2) [2] | uncleaved DNA left (log2) [3] | uncleaved DNA left (log2) [4] | uncleaved DNA left (log2) [5] | uncleaved DNA left (log2) [6] | uncleaved DNA left (log2) [7] | uncleaved DNA left (log2) [8] | uncleaved DNA left (log2) [9] | uncleaved DNA left (log2) [10]
TCATAGG | -0.0601 | -0.0295 | 0.391 | 1.17 | 0.019 | 1.13 | 0.0297 | 0.0451 | -0.0695 | 0.076
GTCTCTA | 0.114 | 0.0328 | 0.358 | 0.775 | 0.0168 | 1.77 | 0.0988 | 0.188 | 0.0577 | 0.111
CAGCCAG | -0.0312 | -0.284 | -0.894 | -0.59 | -0.104 | -0.993 | -0.0814 | -0.178 | -0.11 | -0.151
CCCCAGA | -0.0321 | -0.0366 | 0.0416 | -0.216 | 0.142 | -0.768 | -0.13 | -0.0473 | -0.0916 | -0.0483
GCAAGCT | -0.0857 | 0.134 | 0.242 | 0.883 | 0.0599 | 0.787 | 0.1 | 0.0577 | 0.0193 | 0.0394
AAGCTCC | -0.0736 | -0.017 | 0.0791 | 0.0185 | -0.0303 | 1.15 | -0.0303 | 0.00134 | -0.0375 | -0.0655
TGTACGA | -0.0115 | 0.116 | 0.149 | 0.0398 | 0.0716 | -0.346 | 0.0789 | -0.00771 | 0.0821 | 0.06
ACAAGAG | -0.0328 | -0.0444 | -0.655 | 0.207 | 0.0665 | -0.75 | 0.197 | -0.117 | 0.0264 | -0.0991
GAGCAAT | 0.148 | 0.0746 | 0.362 | 0.937 | -0.0112 | 1.39 | -1.82 | 0.0741 | 0.134 | 0.177
TCTATGG | 0.165 | 0.103 | 0.466 | 1.04 | 0.152 | 1.09 | 0.183 | 0.219 | -0.0143 | 0.0877
TACCTTT | -0.218 | -0.274 | -1.78 | -2.79 | -0.144 | -0.708 | -3.65 | -0.284 | -0.172 | -0.481
GAGGGAC | -0.00254 | 0.0588 | 0.728 | 1.85 | -0.0785 | 2.14 | 0.262 | 0.0511 | 0.108 | 0.159
ATGTCGA | -0.0181 | -0.186 | -0.703 | -0.738 | -0.0317 | -0.983 | -0.00899 | -0.229 | -0.156 | -0.192
TGCATGA | 0.0563 | 0.0137 | -0.0103 | 0.0605 | -0.0166 | -0.609 | -0.0544 | 0.00487 | -0.0214 | -0.101
GGTAGTG | 0.048 | -0.0153 | -0.101 | 0.0442 | 0.017 | -0.302 | 0.12 | 0.0701 | 0.0104 | 0.0547
CGTATAT | -0.0531 | -0.0447 | 0.0268 | -0.294 | -0.124 | -0.118 | -0.772 | -0.179 | -0.0524 | -0.0415
CGAATTA | 0.013 | -0.0183 | -0.13 | -0.877 | -0.0386 | -0.429 | -0.126 | 0.0142 | -0.0519 | 0.0628
AGATGCA | 0.0405 | -0.0544 | -0.422 | -0.598 | 0.0132 | -0.845 | -0.0922 | -0.0382 | 0.0412 | -0.0718
ATCATTT | -0.0627 | -0.173 | -0.29 | -2.66 | -0.0469 | -1.04 | -0.262 | 0.0647 | -0.098 | -0.239
CGGTAAA | 0.0326 | -0.0015 | 0.207 | 0.329 | -0.0857 | 0.282 | -0.0118 | 0.0799 | -0.0439 | -0.0202
TGTAACC | -0.00669 | 0.135 | 0.169 | -0.00846 | -0.0722 | 0.942 | -0.928 | 0.0605 | 0.0375 | 0.0716
CCTTATT | -4 | -3.07 | -0.559 | -3.38 | -0.109 | -0.879 | -3.22 | -0.319 | 0.0134 | -0.634
AGCAGAA | 0.0534 | 0.0926 | 0.105 | 0.394 | 0.102 | 0.456 | -0.0283 | 0.117 | 0.017 | 0.0738
GTACATT | 0.0743 | 0.00162 | 0.598 | 1.53 | 0.0534 | 2.04 | 0.0794 | -0.157 | 0.0607 | 0.202
TCTGTTC | -0.0556 | -0.0466 | 0.0667 | -0.769 | 0.131 | -0.456 | -0.0667 | -0.141 | -0.0235 | -0.135
GAGAATT | 0.0243 | -1.26 | 0.413 | 0.052 | -0.449 | 1.73 | -2.74 | -0.0262 | 0.021 | 0.21
GCTTGAC | -0.0242 | -0.0527 | 0.123 | 0.0933 | 0.0556 | 0.362 | 0.0153 | -0.0365 | -0.104 | -0.0772
CTCAATT | -0.215 | -0.16 | -0.313 | -2.43 | -0.283 | -0.719 | -0.594 | -0.248 | -0.124 | -0.271
AGGGGTT | 0.144 | 0.157 | 0.507 | 1.37 | 0.16 | 1.86 | 0.179 | 0.259 | -0.0863 | 0.123
TAGGTGC | -0.183 | -0.198 | -0.432 | -0.654 | -0.021 | -1.07 | -0.025 | -0.215 | 0.00124 | -0.227
